# Source: the supplement of paper PMC8728848
# Some of the results follow.
# B1: TbCVNHOb (Tuber borchii) (protein)
# chain: GSHIGPYMSFYASSEDVRTIEEGGRTWLVGRARRADGSWQDIKLDLDNIIGNRDGHLTWGEQNFTQSASDIRFNFEGGSNVPVLRAKLRNAAGGEQESDLNLGERLTNNNGDLVFN
# Columns and labels:
# Assay in all cases: glycan array binding signal (z-score within array); higher = stronger binding
# Details in all cases: glycan notation: IUPAC condensed, linker removed
# Fuc(a1-2)Gal = biological target: Fuc(a1-2)Gal
# How it was run: (§1)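 Glycan array binding is given as a within-array Z-score, which can be read as non-binding when negative. The arrays, 3228 of them, came from the Consortium for Functional Glycomics database and were retained only where the protein sequence was available. Z-scores were averaged across arrays of the same protein sequence at different concentrations or buffers and across linkers.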
# Fuc(a1-2)Gal(b1-3)GalNAc = biological target: Fuc(a1-2)Gal(b1-3)GalNAc
# How it was run: as §1
# [1] = biological target: Fuc(a1-2)Gal(b1-3)GalNAc(b1-3)Gal
# How it was run: as §1
# [2] = biological target: Fuc(a1-2)Gal(b1-3)GalNAc(b1-3)Gal(a1-4)Gal(b1-4)Glc
# How it was run: as §1
# [3] = biological target: Fuc(a1-2)Gal(b1-3)GalNAc(b1-3)Gal(b1-4)Glc
# How it was run: as §1
# [4] = biological target: Fuc(a1-2)Gal(b1-3)GalNAc(b1-4)[Neu5Ac(a2-3)]Gal(b1-4)Glc
# How it was run: as §1
# [5] = biological target: Fuc(a1-2)Gal(b1-3)[Fuc(a1-4)]GlcNAc
# How it was run: as §1
# Fuc(a1-2)Gal(b1-4)Glc = biological target: Fuc(a1-2)Gal(b1-4)Glc
# How it was run: as §1
# Fuc(a1-2)Gal(b1-4)GlcNAc = biological target: Fuc(a1-2)Gal(b1-4)GlcNAc
# How it was run: as §1
# [6] = biological target: Fuc(a1-2)Gal(b1-4)GlcNAc(b1-3)Gal(b1-4)GlcNAc
# How it was run: as §1
# [7] = biological target: Fuc(a1-2)Gal(b1-4)GlcNAc(b1-3)Gal(b1-4)GlcNAc(b1-3)Gal(b1-4)GlcNAc
# How it was run: as §1
# [8] = biological target: Fuc(a1-2)Gal(b1-4)[Fuc(a1-3)]GalNAc(b1-3)Gal(b1-4)[Fuc(a1-3)]GlcNAc
# How it was run: as §1
# [9] = biological target: Fuc(a1-2)Gal(b1-4)[Fuc(a1-3)]GalNAc(b1-3)Gal(b1-4)[Fuc(a1-3)]GlcNAc(b1-3)Gal(b1-4)[Fuc(a1-3)]GalNAc
# How it was run: as §1
# [10] = biological target: Fuc(a1-2)Gal(b1-4)[Fuc(a1-3)]GlcNAc
# How it was run: as §1
# Fuc(a1-2)GlcNAc = biological target: Fuc(a1-2)GlcNAc
# How it was run: as §1
# Fuc(a1-2)[Gal(a1-3)]Gal = biological target: Fuc(a1-2)[Gal(a1-3)]Gal
# How it was run: as §1
# [11] = biological target: Fuc(a1-2)[Gal(a1-3)]Gal(b1-3)GlcNAc
# How it was run: as §1
# [12] = biological target: Fuc(a1-2)[Gal(a1-3)]Gal(b1-4)Glc
# How it was run: as §1
# [13] = biological target: Fuc(a1-2)[Gal(a1-3)]Gal(b1-4)GlcNAc
# How it was run: as §1
# [14] = biological target: Fuc(a1-2)[Gal(a1-3)]Gal(b1-4)[Fuc(a1-3)]GlcNAc
# How it was run: as §1
# [15] = biological target: Fuc(a1-2)[Gal(a1-4)]Gal(b1-4)GalNAc
# How it was run: as §1
# [16] = biological target: Fuc(a1-2)[GalNAc(a1-3)]Gal
# How it was run: as §1
# [17] = biological target: Fuc(a1-2)[GalNAc(a1-3)]Gal(b1-3)GlcNAc
# How it was run: as §1
# [18] = biological target: Fuc(a1-2)[GalNAc(a1-3)]Gal(b1-4)Glc
# How it was run: as §1
# [19] = biological target: Fuc(a1-2)[GalNAc(a1-3)]Gal(b1-4)GlcNAc
# How it was run: as §1
# [20] = biological target: Fuc(a1-2)[GalNAc(a1-3)]Gal(b1-4)[Fuc(a1-3)]GlcNAc
# How it was run: as §1
# [21] = biological target: Fuc(a1-2)[GalNAc(a1-4)]Gal(b1-4)GlcNAc
# How it was run: as §1
# Fuc(a1-3)GlcNAc = biological target: Fuc(a1-3)GlcNAc
# How it was run: as §1
# [22] = biological target: Fuc(a1-3)[Gal(b1-4)]GlcNAc
# How it was run: as §1
# [23] = biological target: Fuc(a1-3)[Gal(b1-4)]GlcNAc(b1-4)Gal(b1-4)[Fuc(a1-3)]GlcNAc
# How it was run: as §1
# [24] = biological target: Fuc(a1-3)[Gal(b1-4)]GlcNAc(b1-4)Gal(b1-4)[Fuc(a1-3)]GlcNAc(b1-4)Gal(b1-4)[Fuc(a1-3)]GlcNAc
# How it was run: as §1
# [25] = biological target: Fuc(a1-3)[Gal3S(b1-4)]GlcNAc
# How it was run: as §1
# [26] = biological target: Fuc(a1-3)[GalNAc(b1-4)]Gal(b1-4)GlcNAc
# How it was run: as §1
# Fuc(a1-4)GlcNAc = biological target: Fuc(a1-4)GlcNAc
# How it was run: as §1
# Fuc(b1-3)GlcNAc = biological target: Fuc(b1-3)GlcNAc
# How it was run: as §1
# Gal(a1-2)Gal = biological target: Gal(a1-2)Gal
# How it was run: as §1
# Gal(a1-3)Gal = biological target: Gal(a1-3)Gal
# How it was run: as §1
# Gal(a1-3)Gal(b1-3)Glc = biological target: Gal(a1-3)Gal(b1-3)Glc
# How it was run: as §1
# Gal(a1-3)Gal(b1-3)GlcNAc = biological target: Gal(a1-3)Gal(b1-3)GlcNAc
# How it was run: as §1
# Gal(a1-3)Gal(b1-4)GlcNAc = biological target: Gal(a1-3)Gal(b1-4)GlcNAc
# How it was run: as §1
# [27] = biological target: Gal(a1-3)Gal(b1-4)[Fuc(a1-3)]GalNAc
# How it was run: as §1
# Gal(a1-3)GlcNAc = biological target: Gal(a1-3)GlcNAc
# How it was run: as §1
# [28] = biological target: Gal(a1-3)[Gal(a1-4)]Gal(b1-4)GlcNAc
# How it was run: as §1
# Gal(a1-4)Gal(b1-4)Gal = biological target: Gal(a1-4)Gal(b1-4)Gal
# How it was run: as §1
# Gal(a1-4)Gal(b1-4)GalNAc = biological target: Gal(a1-4)Gal(b1-4)GalNAc
# How it was run: as §1
binder,measurement,setting,value
B1,glycan array binding signal (z-score),Fuc(a1-2)Gal,-0.409
same,glycan array binding signal (z-score),Fuc(a1-2)Gal(b1-3)GalNAc,-0.299
same,glycan array binding signal (z-score),[1],-0.484
same,glycan array binding signal (z-score),[2],2.01
same,glycan array binding signal (z-score),[3],4.24
same,glycan array binding signal (z-score),[4],-0.152
same,glycan array binding signal (z-score),[5],0.7
same,glycan array binding signal (z-score),Fuc(a1-2)Gal(b1-4)Glc,0.347
same,glycan array binding signal (z-score),Fuc(a1-2)Gal(b1-4)GlcNAc,-0.529
same,glycan array binding signal (z-score),[6],-0.268
same,glycan array binding signal (z-score),[7],-0.361
same,glycan array binding signal (z-score),[8],-0.589
same,glycan array binding signal (z-score),[9],-0.572
same,glycan array binding signal (z-score),[10],-0.363
same,glycan array binding signal (z-score),Fuc(a1-2)GlcNAc,-0.561
same,glycan array binding signal (z-score),Fuc(a1-2)[Gal(a1-3)]Gal,-0.286
same,glycan array binding signal (z-score),[11],-0.523
same,glycan array binding signal (z-score),[12],-0.49
same,glycan array binding signal (z-score),[13],-0.146
same,glycan array binding signal (z-score),[14],-0.563
same,glycan array binding signal (z-score),[15],0.5
same,glycan array binding signal (z-score),[16],-0.182
same,glycan array binding signal (z-score),[17],-0.444
same,glycan array binding signal (z-score),[18],0.333
same,glycan array binding signal (z-score),[19],0.041
same,glycan array binding signal (z-score),[20],-0.516
same,glycan array binding signal (z-score),[21],-0.465
same,glycan array binding signal (z-score),Fuc(a1-3)GlcNAc,-0.182
same,glycan array binding signal (z-score),[22],-0.527
same,glycan array binding signal (z-score),[23],-0.485
same,glycan array binding signal (z-score),[24],-0.402
same,glycan array binding signal (z-score),[25],-0.469
same,glycan array binding signal (z-score),[26],0.474
same,glycan array binding signal (z-score),Fuc(a1-4)GlcNAc,-0.552
same,glycan array binding signal (z-score),Fuc(b1-3)GlcNAc,-0.447
same,glycan array binding signal (z-score),Gal(a1-2)Gal,-0.375
same,glycan array binding signal (z-score),Gal(a1-3)Gal,-0.303
same,glycan array binding signal (z-score),Gal(a1-3)Gal(b1-3)Glc,-0.028
same,glycan array binding signal (z-score),Gal(a1-3)Gal(b1-3)GlcNAc,-0.53
same,glycan array binding signal (z-score),Gal(a1-3)Gal(b1-4)GlcNAc,-0.565
same,glycan array binding signal (z-score),[27],-0.535
same,glycan array binding signal (z-score),Gal(a1-3)GlcNAc,-0.551
same,glycan array binding signal (z-score),[28],1.91
same,glycan array binding signal (z-score),Gal(a1-4)Gal(b1-4)Gal,4.24
same,glycan array binding signal (z-score),Gal(a1-4)Gal(b1-4)GalNAc,0.275
